How the values were obtained:
MDA-MB-453 cells = experiment: Internalization of antibody-drug conjugates with pHrodo in MDA-MB-453 cells; type: cell-based; settings: 10 nM
Protocol: The up-taken of the antibody-drug conjugate of the present application against the HER3 target on MDA-MB-453 cells expressing HER3 was detected. The cell, the antibody-drug conjugate (ADC) with a fixed concentration, and an internalization indicating reagent pHrodo were co-incubated, and the endocytosis capacity of the antibody-drug conjugate was evaluated by observing the number of fluorescent signal bright dots generated by pHrodo which entered the cell along with the antibody-drug conjugate in the cell at different time points.
• 1. Cell culture: MDA-MB-453 cells were cultured using a 10% FBS Leibovitz's L-15 medium. • 2. Cell preparation: MDA-MB-453 cells in logarithmic phase were taken, washed with PBS once, and digested with 2-3 mL of Versene for 2-3 min. After the cells were digested completely, 10-15 mL of cell culture was added to elute the digested cells. The eluate was centrifuged at 1000 rpm for 5 min, and the supernatant was discarded. The resulting cells were resuspended in cell culture to give a single cell suspension, which was adjusted to a viable cell density of […] cells/mL. • 3. Cell plating: the cell suspension was added to a 96-well cell culture plate at 50 μL/well. The culture plate was incubated in an incubator for 18 h (37° C., 5% CO2). • 4. Sample adding: the test antibody-drug conjugate was co-incubated with Fab-pHrodo to form a complex, adjusted to a concentration of 10 nM, and added to the cells at 50 μL/well. • 5. Culturing of cells: the culture plate was incubated in an incubator for 2, 4, 6, 24, or 48 h (37° C., 5% CO2). • 6. Plate reading: when the corresponding time point was reached, the 96-well cell culture plate was taken out, Hoechst33342 was added to perform cell nucleus staining, the plate was placed in operatta CLS for photographing, and the number of cells and the number of fluorescent bright dots in each cell were read. The average number of cell fluorescent dots was calculated using Harmony® imaging and analysis software.

MDA-MB-231 cells = experiment: In vitro proliferation inhibition (CTG), MDA-MB-231; type: cell-based; settings: 6 days of culture, not expressing Her3
Protocol: To test the proliferation inhibitory activity of the antibody-drug conjugate of the present application targeting HER3 to HCC1569 and MDA-MB-453 cells with high expression of Her3 and MDA-MB-231 tumor cells not expressing Her3 in vitro. The cells were treated with the antibody-drug conjugates at different concentrations in vitro, and after 6 days of culture, the proliferation of cells was detected using the CTG reagent, and the in vitro activity of the compounds was evaluated according to the 50% growth inhibitory concentration (IC50) value.
• 1. Cell culture: HCC1569, MDA-MB-453, or MDA-MB-231 cells were cultured in RPMI-1640 medium containing 10% FBS. • 2. Cell Preparation: HCC1569, MDA-MB-453, or MDA-MB-231 cells in logarithmic phase were taken, washed with PBS once, and digested with 2-3 mL of trypsin for 2-3 min. After the cells were digested completely, 10-15 mL of cell culture was added to elute the digested cells. […] The cells were stained with trypan blue and viable cells were counted. • 3. […] Sample adding: the prepared samples to be detected at different concentrations were added to the culture plate, and two duplicate wells were set for each sample. […] Plate reading: the 96-well cell culture plate was taken out, placed in a 2104 EnVision microplate reader, and measured for the chemiluminescence using the microplate reader. […]

[1] = test system: HCC1569 breast cancer cells subcutaneous xenograft; experiment: Efficacy in HCC1569 tumor-bearing mice; type: in vivo, mouse; settings: 1 mg/kg tail vein 1 time per week; end of experiment, 21 days
Protocol: To evaluate anti-tumor effect of the antibody-drug conjugates of the present application in a female NOD/SCID mouse model with subcutaneous xenograft of HCC1569 breast cancer cells. • Blank control (negative control group): […] The growth of the tumors was monitored. […] The day of administration for each group was defined as day 0. The administration was performed by tail vein injection 1 time per week, and the experiment ended 21 days after the administration. The tumor volume and weight were measured twice a week, and the data were recorded. At the end of the experiment, mice were euthanized and tumor growth inhibition TGI % was calculated as follows: (TGI=(1−(Ti−T0)/(Vi−V0))). Ti: mean tumor volumes of the treatment groups and the positive control group on day i of administration; TO: mean tumor volumes of the treatment groups and the positive control group on day 0 of administration; Vi: mean tumor volume of the negative control group on day i of administration; V0: mean tumor volume of the negative control group on day 0 of administration. Data were analyzed using Excel 2016 statistical software, wherein the mean value was calculated as avg; the SD value was calculated as STDEV; and the P value of the difference between groups was calculated as TTEST.

Colo205 xenograft = experiment: Efficacy in Colo205 tumor-bearing mice; type: in vivo, mouse; settings: 1 mg/kg tail vein 1 time every two weeks; end of experiment, 22 days
Protocol: To evaluate the anti-tumor effect of the antibody-drug conjugates of the present application using BALB/c nude mice as test animals; • Blank control (negative control group): […] Colo205 cells were subcutaneously inoculated into the right flank of the mice, 1×10^7 cells (100 μL/mouse). When the tumors grew to 80-120 mm^3, the animals were randomly grouped, 5 animals per group. The day of administration for each group was defined as day 0. The administration was performed by tail vein injection 1 time every two weeks, and the experiment ended 22 days after the administration. The tumor volume and weight were measured twice a week, and the data were recorded. At the end of the experiment, mice were euthanized and tumor growth inhibition TGI % was calculated as follows: (TGI=(1−(Ti−T0)/(Vi−V0))). Ti: mean tumor volumes of the treatment groups and the positive control group on day i of administration; T0: mean tumor volumes of the treatment groups and the positive control group on day 0 of administration; Vi: mean tumor volume of the negative control group on day i of administration; V0: mean tumor volume of the negative control group on day 0 of administration. Data were analyzed using Excel 2016 statistical software, wherein the mean value was calculated as avg; the SD value was calculated as STDEV; and the P value of the difference between groups was calculated as TTEST.

B1: ADC-1-X1: anti-Her3 antibody hu3F8-2 conjugated with linker-payload X1, DAR 7.12 (conjugate)
heavy: QVQLQESGPGLVKPSETLSLTCTVSGYSITSAYYWNWIRQPFGKGLEWMGYISYDGRNNFNPSLKNRVTISRDTSKNQFSLKLSSVTAADTAVYYCARDGDYDYFDYWGQGTTVTVSS[human IgG1 constant region left out]
light: DIQMTQSPSSLSASVGDRVTITCRASQDISNYLNWYQQKPGKAPKLLIYYTSILHSGVPSRFSGSGSGTDYTFTISSLQPEDIATYFCQQGDTLPPTFGGGTKLEIKRTVAAPSVFIFPPSDEQLKSGTASVVCLLNNFYPREAKVQWKVDNALQSGNSQESVTEQDSKDSTYSLSSTLTLSKADYEKHKVYACEVTHQGLSSPVTKSFNRGEC
- Average number of fluorescence dots in cells (MDA-MB-453 cells; assay time 2 h): 1.1
- Average number of fluorescence dots in cells (MDA-MB-453 cells; assay time 4 h): 2.0
- Average number of fluorescence dots in cells (MDA-MB-453 cells; assay time 6 h): 2.5
- Average number of fluorescence dots in cells (MDA-MB-453 cells; assay time 24 h): 2.7
- Average number of fluorescence dots in cells (MDA-MB-453 cells; assay time 48 h): 4.0
- IC50 (MDA-MB-231 cells): > 100 nM
- Mean tumor volume [1]: 254.63 ± 57.6 mm^3
- Tumor growth inhibition % [1]: 76.39%
- Mean tumor volume (Colo205 xenograft): 385.11 ± 111 mm^3
- Tumor growth inhibition % (Colo205 xenograft): 24.33%

From US20250295802A1, “HER3 ANTIBODY-DRUG CONJUGATE AND USE THEREOF” (DUALITY BIOLOGICS (SUZHOU) CO., LTD., priority 2022, published 2025)
